Experimental data as given in patent publication US11000038B2, “Pyridone compounds and agricultural and horticultural fungicides containing the same as active ingredients” (priority 2017, dated 2021).

Tests used:
[1] = test system: cabbage Alternaria sooty spot fungi (Alternaia brassicicola); test: Test Example C: cabbage Alternaria sooty spot, spray treatment of cabbage plants; type: in vivo; conditions: for Test C control value: cabbage Alternaria sooty spot; for Test C control value class (cabbage Alternaria sooty spot): control value=100{1-(n/3)}
Source text: [Test Example C] Cabbage Alternaria Sooty Spot
Test plants (cabbage variety: Shikidori) were cultivated until the cotyledons extended after the sowing of seeds.
<Control Value> Control value=100{1−(n/3)}

[2] = test system: gray mold fungi (Botrytis cinerea); test: Test Example B: tomato gray mold, spray treatment of tomato plants; conditions: for Test B control value: tomato gray mold; for Test B control value class (tomato gray mold): control value=100{1-(n/3)}
[3] = test system: wheat brown rust fungi (Puccinia recondita); test: Test Example E: wheat brown rust, spray treatment of wheat plants; type: in vivo; conditions: for Test E control value: wheat brown rust; for Test E control value class (wheat brown rust): control value=100{1-(n/3)}
[4] = test system: grape downy mildew fungus (Plasmopara viticola); test: Test Example G: grape downy mildew, spray treatment of grape plants; conditions: for Test G control value: grape downy mildew, 7 to 10 days after inoculation; for Test G control value class (grape downy mildew): 2.5 ml/pot, grape Neomuscat, 7 to 10 days from inoculation
[5] = test system: barley powdery mildew fungi (Blumeria graminis f. sp. hordei); test: Test Example D: barley powdery mildew, spray treatment of barley plants; conditions: for Test D control value: barley powdery mildew; for Test D control value class (barley powdery mildew): control value=100{1-(n/3)}
[6] = spray treatment of cabbage plants
[7] = spray treatment of tomato plants
[8] = spray treatment of wheat plants
[9] = spray treatment of barley plants

Structure (SMILES) | Test C control value ([1]; spray treatment) | Test B control value ([2]; spray treatment) | Test E control value ([3]; spray treatment) | Test G control value ([4]; 250 ppm spray) | Test D control value ([5]; spray treatment) | also measured
COc1cc(F)c(-c2c(C)c(=O)c(C)cn2-c2cc(F)ccc2C)c(F)c1 [Compound 462] | H (H shows the control value of more than 50%) | H (H shows the control value of more than 50%) | H (H shows the control value of more than 50%) | L (L shows the control value of 50% or less) | H (H shows the control value of more than 50%) | –
Cc1cccc(-n2cc(C)c(=O)c(C)c2-c2ccccc2)c1C [Compound 482] | H (H shows the control value of more than 50%) | H (H shows the control value of more than 50%) | H (H shows the control value of more than 50%) | L (L shows the control value of 50% or less) | L (L shows the control value of 50% or less) | –
COc1cc(F)c(-c2c(Br)c(=O)c(Cl)cn2-c2ccccc2C)c(F)c1 [Compound 65] | – | – | – | – | – | Test C control value class (cabbage Alternaria sooty spot) [1, 6]: H (H shows the control value of more than 50%); Test B control value class (tomato gray mold) [2, 7]: H (H shows the control value of more than 50%); Test E control value class (wheat brown rust) [3, 8]: H (H shows the control value of more than 50%); Test G control value class (grape downy mildew) ([4]; 250 ppm spray): L (L shows the control value of 50% or less); Test D control value class (barley powdery mildew) [5, 9]: H (H shows the control value of more than 50%)
Cc1ccccc1-n1cc(Br)c(=O)c(Cl)c1-c1c(F)cc(F)cc1F [Compound 66] | – | – | – | – | – | Test C control value class (cabbage Alternaria sooty spot) [1, 6]: H (H shows the control value of more than 50%); Test B control value class (tomato gray mold) [2, 7]: H (H shows the control value of more than 50%); Test E control value class (wheat brown rust) [3, 8]: H (H shows the control value of more than 50%); Test G control value class (grape downy mildew) ([4]; 250 ppm spray): L (L shows the control value of 50% or less); Test D control value class (barley powdery mildew) [5, 9]: H (H shows the control value of more than 50%)
Cc1ccc(C#N)cc1-n1cc(Br)c(=O)c(Br)c1-c1c(F)cc(F)cc1F [Compound 337] | – | – | – | – | – | Test C control value [1, 6]: L (L shows the control value of 50% or less); Test B control value [2, 7]: H (H shows the control value of more than 50%); Test E control value [3, 8]: H (H shows the control value of more than 50%); Test G control value ([4]; 250 ppm spray (2.5 ml/pot)): L (L shows the control value of 50% or less); Test D control value [5, 9]: L (L shows the control value of 50% or less)
CCc1c(-c2c(F)cccc2F)n(-c2ccccc2)cc(C)c1=O [Compound 555] | H (H shows the control value of more than 50%) | H (H shows the control value of more than 50%) | H (H shows the control value of more than 50%) | L (L shows the control value of 50% or less) | H (H shows the control value of more than 50%) | –
CCCCn1cc(Br)c(=O)c(Br)c1-c1c(F)cc(F)cc1F [Compound 234] | – | – | – | – | – | Test C control value [1, 6]: H (H shows the control value of more than 50%); Test B control value [2, 7]: H (H shows the control value of more than 50%); Test E control value [3, 8]: H (H shows the control value of more than 50%); Test G control value ([4]; 250 ppm spray (2.5 ml/pot)): L (L shows the control value of 50% or less); Test D control value [5, 9]: L (L shows the control value of 50% or less)
Cc1cc(F)ccc1-c1c(C)c(=O)c(C)cn1-c1ccccc1 [Compound 571] | H (H shows the control value of more than 50%) | H (H shows the control value of more than 50%) | H (H shows the control value of more than 50%) | L (L shows the control value of 50% or less) | H (H shows the control value of more than 50%) | –
O=c1c(Br)cn(-c2ccccc2)c(-c2ccc(Cl)cc2Cl)c1Cl [Compound 588] | H (H shows the control value of more than 50%) | H (H shows the control value of more than 50%) | H (H shows the control value of more than 50%) | H (H shows the control value of more than 50%) | L (L shows the control value of 50% or less) | –
